Source: the supplement of paper PMC10681739
The full ranking holds about 4,100 sequences; the median of “arbitrary fluorescence units” is about 780, and the highest 2% start at about 22,000. Some of the results follow.

target: T1, ETS1 (UniProt P14921); assay: ETS1 binding intensity (PBM fluorescence), ETS1 alone (arbitrary fluorescence units); higher = stronger binding; conditions: ETS1 concentration 1 nM; RUNX1 concentration 0 nM
T1 sequence: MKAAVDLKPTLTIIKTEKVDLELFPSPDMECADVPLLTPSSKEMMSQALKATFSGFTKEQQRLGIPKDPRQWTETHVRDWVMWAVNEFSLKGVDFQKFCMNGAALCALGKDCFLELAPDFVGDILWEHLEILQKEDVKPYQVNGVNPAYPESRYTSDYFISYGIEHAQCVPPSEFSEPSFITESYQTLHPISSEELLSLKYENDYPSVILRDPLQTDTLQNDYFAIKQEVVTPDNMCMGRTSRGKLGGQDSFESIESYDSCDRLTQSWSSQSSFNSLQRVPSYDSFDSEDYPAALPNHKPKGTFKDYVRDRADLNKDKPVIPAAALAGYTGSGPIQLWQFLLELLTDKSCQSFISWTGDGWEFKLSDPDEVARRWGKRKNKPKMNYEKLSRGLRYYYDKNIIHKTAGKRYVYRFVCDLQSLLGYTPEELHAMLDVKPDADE
In short: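 Recombinant full-length human ETS1 was applied at 1 nM, without RUNX1, to double-stranded Agilent 4 × 180k arrays of 36-bp genomic probes carrying a mutated RUNX1 partner site, following standard PBM protocols. Detection used an anti-ETS1 antibody (Cell Signaling Technology 14069) and an Alexa488-conjugated secondary antibody, with scanning on a GenePix 4400A. Each sequence was printed as four replicate spots. Binding level is the spot fluorescence intensity, summarised across replicates and not normalised.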

Q: For TGACTCACCTTCCTGTAGGTTGGATTTCTGCATATC, which ETS1 binding intensity is on record?
A: 1490

Q: With TGGCCAGGAAGCCACTCGATTGCCGGCGCCCTCAGC as the sequence, how does the ETS1 binding intensity read?
A: 566

Q: For ACAGAGAGGGAAGTCGCCAGTGTTGTCAGCGGGCGT, which ETS1 binding intensity is on record?
A: 494

Q: For AGCGGGAGGAAGTGCTGCAGTAGGCACAGCAGCCTG, which ETS1 binding intensity is on record?
A: 2010

Q: With CACCCCGCCTCTGAGGGACCACTTCCGGCGCCTTCT as the sequence, how does the ETS1 binding intensity read?
A: 9910

Q: How did the ETS1 binding intensity turn out when AACTGGATTGAGCACATGGAGGAAATGGGAGGAGGC was run?
A: 556

Q: With TTTCCTGAGCTTAAACACAACTATGTGTTTCCTGAC as the sequence, how does the ETS1 binding intensity read?
A: 432

Q: How did the ETS1 binding intensity turn out when GGACTGCGTTTCCGGACACTGAGGGTGCCGGTAGCC was run?
A: 12100

Q: For TGATAGTGGATTTGGGGTGATGCAAACAGGAAGAAA, which ETS1 binding intensity is on record?
A: 555

Q: With CTGCAGTCACCTACAGCTCACTTCCGCTCTCCACTT as the sequence, how does the ETS1 binding intensity read?
A: 5270

Q: For GCCGCGAGTTCCGCCGGGTGGACCCCAAATCCCGAG, which ETS1 binding intensity is on record?
A: 1130

Q: CTCCGCAGGATGACTCAGGGCAGCCCTGACAACAGT was tested. Which ETS1 binding intensity did it give?
A: 318

Q: For GAAGAGTTGAGGGATGAGGGCTCGCGGAAGATAAAA, which ETS1 binding intensity is on record?
A: 430

Q: For TCCAGGATGTGCTGAACCTCCAGAATCCACCGGCTT, which ETS1 binding intensity is on record?
A: 678

Q: AGCTTGGCCAGCGGCTTCTTCCTGTAGCTTCTGCAT was tested. Which ETS1 binding intensity did it give?
A: 1010

Q: How did the ETS1 binding intensity turn out when CCCCACATCCGGGGGCCGGGGCCGGGCTGAGGGCTT was run?
A: 13100

Q: ACCGGATGCCGGGGCACCGCCAGATGTTGCCACGAG was tested. Which ETS1 binding intensity did it give?
A: 1960

Q: TGCGAGGAAGCGCGGCCACGTGACTGCTGCAGGCCA was tested. Which ETS1 binding intensity did it give?
A: 392

Q: ACTTAGTGAAGTTTCCTTCACTTGGTCTTGCTCTTC was tested. Which ETS1 binding intensity did it give?
A: 474

Q: With TGCGCCGAAAACGCTTCCTCCTCCGCGAGTGGCTGA as the sequence, how does the ETS1 binding intensity read?
A: 830

Q: How did the ETS1 binding intensity turn out when AAACAGCGGCGCGAAAGTCTCTCGGAAATGACGCAA was run?
A: 335

Q: How did the ETS1 binding intensity turn out when AGCACAGCCCTCAGCCATGGGTTCAGCCGGAAGCCC was run?
A: 439

Q: For GCGGGCGTGCAGGCGGCAGATGAGGAAACAGACTAG, which ETS1 binding intensity is on record?
A: 389

Q: For ACCGCCGGAAGTTTCTGCCGCGGCTTTTCGGGGACG, which ETS1 binding intensity is on record?
A: 6040

Q: How did the ETS1 binding intensity turn out when GTTTTGGGGCCTAAAGAAACATATGGTCAGGATGAT was run?
A: 444

Q: Which ETS1 binding intensity does the source give for GCCTGCGCTCTTTCCGGTAGCCAGAGCCTCGTCTAA here?
A: 8280

Q: With AGCACCCCATTCTACACCTCCAGCTCATCCTGCGTC as the sequence, how does the ETS1 binding intensity read?
A: 389

Q: CAGGTGTCCGTGGCTGGGAGGAAACCCAGAGTCAGG was tested. Which ETS1 binding intensity did it give?
A: 377

Q: How did the ETS1 binding intensity turn out when ATTTCCATTTCCGGACTCTTCTCCTGCCCTCAGGGC was run?
A: 17600

Q: For AAAAACTACATTTCCCATGAGCACCCTCAGGCGTGC, which ETS1 binding intensity is on record?
A: 551

Q: How did the ETS1 binding intensity turn out when GGCTTGGGGTTTGGTGATTGTACTTCCTTATTGATA was run?
A: 738

Q: How did the ETS1 binding intensity turn out when AGATGCAAACACAGGAAACTTGTGGACTATGCTGCT was run?
A: 842

Q: For GCGGAATTGGGGCGGGAGGGGGAGGAGGAAGTCAGG, which ETS1 binding intensity is on record?
A: 1730

Q: Which ETS1 binding intensity does the source give for TCAGTCTTGGGGTTAAGGGAGGAAGGGTACTGTTGG here?
A: 400

Q: How did the ETS1 binding intensity turn out when GAGGAGGTGGCTGCTATAACCCCAAGGGGGAAACGC was run?
A: 436

Q: With CACCCGCCTCTACGCGCGGCCCCGGAAGCTCCTTAA as the sequence, how does the ETS1 binding intensity read?
A: 585

Q: How did the ETS1 binding intensity turn out when ACCATTCTGTGACTTTCTGGTTTCCTTCCTTTTTGG was run?
A: 536

Q: With TGAGGAATGTTTTCCTGGGGCTGAGGGGCCAGGGTG as the sequence, how does the ETS1 binding intensity read?
A: 385

Q: TTGTCTGCATCCTGTGCTGTCTGGTAGCTCTGGGTT was tested. Which ETS1 binding intensity did it give?
A: 4740

Q: Which ETS1 binding intensity does the source give for GACGAAGCGCCGTCTCACCACGTCCGGGGAAATCGG here?
A: 712

Q: Which ETS1 binding intensity does the source give for CGAAGGAGGAAGCTGCACAGGGTGTCTCTGGCTGGC here?
A: 561

Q: Which ETS1 binding intensity does the source give for GTGCAGACAGGAAATAGCTGCTCTTCGGCAGCCCGA here?
A: 7940

Q: AGTCCCTCAGCCCTGCGACCAGCGGCCGGAAGCAGC was tested. Which ETS1 binding intensity did it give?
A: 803

Q: CCTGGGGCCCCAAAACTGCCTCCTTCCTGAGGCCAG was tested. Which ETS1 binding intensity did it give?
A: 368

Q: How did the ETS1 binding intensity turn out when TCGAGAATCCGCCCCCGCCTCAGGAAGGGGTAGGCG was run?
A: 436

Q: How did the ETS1 binding intensity turn out when AACGCGTCCATCCTGCGCCTCCCCGTAGGCCTTGCT was run?
A: 950

Q: With GACTCTGGTGGAGAGAGAGGGGAAGGAAGTTGTTTT as the sequence, how does the ETS1 binding intensity read?
A: 525

Q: How did the ETS1 binding intensity turn out when ACCAAGTTTCGGGCAGGATCTTCCTGTAGTTTGCCT was run?
A: 566

Q: For GAAGCACCTACAGCCCTACCAGCTTCCGTAGAGAGA, which ETS1 binding intensity is on record?
A: 757

Q: With TTTTCACCCGCCTTCCCTTCAGGCTTCCTTGTTTTT as the sequence, how does the ETS1 binding intensity read?
A: 624

Q: Which ETS1 binding intensity does the source give for TCTCGGCCTCGGGCGCAGCACCCGGAAGCTGAGGGG here?
A: 606

Q: For CTCCTGGGCTTGTAGTTAGAGCATCCTGCAGCAAGG, which ETS1 binding intensity is on record?
A: 611

Q: GCCTTGTAGGCGCTCACTTGCCCCGGAAGTACTGTT was tested. Which ETS1 binding intensity did it give?
A: 1000

Q: TCCAGCCGGACGCGATGCCTGGAGGCTGCAGGCGCA was tested. Which ETS1 binding intensity did it give?
A: 562

Q: For ACAGAAGCGGCCACGTGCCTTGGCGCGCTTCCGCAC, which ETS1 binding intensity is on record?
A: 401

Q: Which ETS1 binding intensity does the source give for TGGGGAGCAGGAAGCTGGGGGCGTTCGTGGAGGGAC here?
A: 1240

Q: Which ETS1 binding intensity does the source give for CCGAGCGCATTTTACGTGGTGCTGCATTTCCGGTAG here?
A: 3930

Q: For GCCCCGGTGGATTTGAACTCCCGCCAACTTCCCTTT, which ETS1 binding intensity is on record?
A: 355

Q: With CCGAGTTGCGATTTCTCCGTTAGTGCTTCCGGGTTG as the sequence, how does the ETS1 binding intensity read?
A: 886

Q: Which ETS1 binding intensity does the source give for ATGGGGAACGGGAAATACGGCGGGAACCCCAATCGC here?
A: 1020

Q: With CTGACAGCTTCCGCACAAAGCGCGCTCTATTTCTCC as the sequence, how does the ETS1 binding intensity read?
A: 5140

Q: For CCCATTTCCTGCTCTCCAGAGTTATCCACTGAAGTC, which ETS1 binding intensity is on record?
A: 20100

Q: Which ETS1 binding intensity does the source give for GGGCGCGCCCTCCGCTCCCTTCCGCGCCCTGTCGAG here?
A: 341

Q: How did the ETS1 binding intensity turn out when GTAACTGAAATCACAGCAAGCGGAACTGTAGGTAAG was run?
A: 398

Q: With GAGATTCTCTGGCTGGGTCTGTCTGTTTCCTGCTAG as the sequence, how does the ETS1 binding intensity read?
A: 459

Q: For AACCTGCAGACTTCCTGCCATGTGACAACAGGGTCT, which ETS1 binding intensity is on record?
A: 9580

Q: How did the ETS1 binding intensity turn out when ACTCAGCCCAAAAAGCTAACAGCAGGAAGTGCTTGG was run?
A: 946

Q: With TTAGGGCTTATCCACTGACGGAAACTGTCTTGTGTC as the sequence, how does the ETS1 binding intensity read?
A: 463

Q: How did the ETS1 binding intensity turn out when GTTAAGCGCACTGCCGCTGGCTGGGTATCCGCGGCA was run?
A: 320

Q: GAGCACAGGAAAAGCTGGTGCCAACTACAAGTGCTT was tested. Which ETS1 binding intensity did it give?
A: 532

Q: For AGCCGTTTCCGGCGCTCTACCCCGCCGTAGGCCGAG, which ETS1 binding intensity is on record?
A: 21400

Q: With TCTTCTTCCTCCCCCACCCCAAAAGTCACAGGTGAC as the sequence, how does the ETS1 binding intensity read?
A: 1450

Q: For GCGGCGCGTACGGGGGAGGAGACGGTTCCGGGGGAC, which ETS1 binding intensity is on record?
A: 635

Q: How did the ETS1 binding intensity turn out when GCCGTAGCGGAAGAGTGTTCATGGTCATGTGACGCC was run?
A: 965

Q: ACCCCGGAAGTGTGGGCGCGGCTGCTGTTTAACCCG was tested. Which ETS1 binding intensity did it give?
A: 6970

Q: AGCGTTTCCTGCCTGTCTGGGGCTGACAAACCCCAA was tested. Which ETS1 binding intensity did it give?
A: 21600

Q: CAGGGCCTGAGGTGCCTTGCGCAGCGGAAATGGCGC was tested. Which ETS1 binding intensity did it give?
A: 805

Q: For GCATTGTGCTTCCGCTCGGGGAAAGAGCGCTTACGG, which ETS1 binding intensity is on record?
A: 10400

Q: How did the ETS1 binding intensity turn out when AAACCTGTCGCTAGTGGGGGCCAGGAAGGATCTGTT was run?
A: 454

Q: CTTAGGACTTCCCGTAGATGGTGCTCTGTGCTAAGG was tested. Which ETS1 binding intensity did it give?
A: 3120
